Source: article PMC4336329 (PLoS ONE, 2015)
Screen size: about 310,000 compounds; about 14,000 (4.5%) showed an effect of 50% or more. Effects have a minus sign here. The list shows a part of the results.

These molecules were tested against human ether-à-go-go-related gene (hERG) potassium channel (human, UniProt Q12809) (assay: primary screen, population patch clamp on CHO cells stably expressing hERG).
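Also: peak tail current of the secondary pulse compared with the same well before compound.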

human ether-à-go-go-related gene (hERG) potassium channel, sequence (Q12809 whole entry, looked up): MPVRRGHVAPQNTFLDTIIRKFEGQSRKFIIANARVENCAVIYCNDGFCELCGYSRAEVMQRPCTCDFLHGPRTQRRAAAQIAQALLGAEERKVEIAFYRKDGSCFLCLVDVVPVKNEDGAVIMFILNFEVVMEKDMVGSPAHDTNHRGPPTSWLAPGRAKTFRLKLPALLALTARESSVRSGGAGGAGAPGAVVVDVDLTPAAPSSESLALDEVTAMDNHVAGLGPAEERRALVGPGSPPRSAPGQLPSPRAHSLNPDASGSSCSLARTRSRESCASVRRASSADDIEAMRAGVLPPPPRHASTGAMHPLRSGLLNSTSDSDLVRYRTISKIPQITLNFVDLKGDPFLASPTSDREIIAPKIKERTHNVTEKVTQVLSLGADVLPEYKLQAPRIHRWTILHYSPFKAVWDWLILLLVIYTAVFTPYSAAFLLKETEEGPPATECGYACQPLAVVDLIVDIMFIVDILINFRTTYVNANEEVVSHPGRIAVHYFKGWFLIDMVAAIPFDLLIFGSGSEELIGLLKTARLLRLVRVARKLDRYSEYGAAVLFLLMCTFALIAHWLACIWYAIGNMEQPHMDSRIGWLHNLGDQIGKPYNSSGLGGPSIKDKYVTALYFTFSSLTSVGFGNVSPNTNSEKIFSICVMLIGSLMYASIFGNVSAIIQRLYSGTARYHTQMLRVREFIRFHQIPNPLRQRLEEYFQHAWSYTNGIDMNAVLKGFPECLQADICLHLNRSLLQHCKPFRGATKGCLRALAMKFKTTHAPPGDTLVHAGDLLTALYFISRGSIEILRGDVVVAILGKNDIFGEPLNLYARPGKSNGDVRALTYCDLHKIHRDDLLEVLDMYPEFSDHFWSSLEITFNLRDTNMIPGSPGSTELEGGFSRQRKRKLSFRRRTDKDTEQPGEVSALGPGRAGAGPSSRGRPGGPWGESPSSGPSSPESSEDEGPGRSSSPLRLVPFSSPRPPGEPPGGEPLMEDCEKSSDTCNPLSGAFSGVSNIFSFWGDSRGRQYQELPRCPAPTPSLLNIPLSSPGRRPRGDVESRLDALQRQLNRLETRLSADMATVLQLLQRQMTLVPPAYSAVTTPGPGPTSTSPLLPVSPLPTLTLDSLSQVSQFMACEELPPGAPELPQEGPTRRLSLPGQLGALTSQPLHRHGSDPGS

Compound | hERG current change (%, negative = inhibition) at 10uM [%]
Cc1ccccc1C(=O)NC1CCN(CC(=O)Nc2ccccc2)CC1 | -6.23
COc1ccc(NC(=O)CN(C)CC(=O)c2[nH]c(C)c(C(C)=O)c2C)cc1 | -18.3
CCOC(=O)c1cc(C)sc1/N=C/C1C(=O)CCCC1=O | -14
COc1ccc(NC(=O)c2ccccc2NC(=O)c2ccccc2C(=O)O)c(OC)c1 | 26.9
COC(=O)c1ccc(C(=O)OC)c(NC(=O)C(C)C)c1 | 11.7
CN(c1ccc(F)cc1)S(=O)(=O)c1ccc(Cl)c(C(=O)Nc2ccc3c(c2)CCC3)c1 | 10.9
CCC(C)NC(=O)c1cn(CC)c2ccc(S(=O)(=O)N(C)C)cc2c1=O (stereo not shown) | 1.45
COc1ccc(CNC(=O)c2cc(=O)c3ccc(C)c(C)c3o2)cc1 | 19.5
COc1ccc(C(=O)NCc2nnc(SCC(=O)c3ccccc3)o2)cc1 | 13.8
Cc1ccc(C)c(S(=O)(=O)N2CCCC2CNC(=O)c2ccc([N+](=O)[O-])cc2)c1 (stereo not shown) | -81.8
CCOC(=O)c1ccc(N=C2SC(C(=O)NC)CC(=O)N2Cc2ccc(F)cc2)cc1 (stereo not shown) | 5.3
COc1ccccc1N1CCN(C(=O)c2sc3ncnc(N4CCN(c5ccccn5)CC4)c3c2C)CC1 | -18.8
CS(=O)(=O)c1ccccc1C(=O)Nc1cccc(-c2nc3ccccc3o2)c1 | 8.25
CCN(CC)CCOC(=O)c1ccc(N/C=C(/C#N)c2nc(-c3cc4ccccc4oc3=O)cs2)cc1 | 6.62
Cc1ccc(S(=O)(=O)/N=C(\N)Nc2nc(C)c3ccccc3n2)cc1 | -4.72
COc1ccc(CN2CCNC(=O)C2CC(=O)NCc2csc(C)n2)c(F)c1 (stereo not shown) | 24.6
CC1CN(C2CCN(S(=O)(=O)c3ccc4ccccc4c3)CC2)CC(C)O1 (stereo not shown) | -22.5
O=C(CSc1nncn1-c1cccnc1)N1CCOCC1 | 6.98
COc1cc(/C=C2/OC(=O)c3cc([N+](=O)[O-])ccc32)cc(OC)c1OC | 11.3
O=C(Nc1cccc(-c2cn3ccccc3n2)c1)c1ccccc1 | -17.6
Cc1ccc(C)c(NS(=O)(=O)c2ccc(-c3coc(C)n3)cc2)c1 | 22.1
CC1CCC(NC(=O)CN(C)S(=O)(=O)c2ccc3c(c2)CCC(=O)N3)CC1 (stereo not shown) | -7.85
C#CCSc1nccc(-c2nn(-c3ccc(C)cc3)ccc2=O)n1 | -5.54
CCOC(=O)c1c(-c2cccc3ccccc23)csc1NC(=O)C1C2CCC(O2)C1C(=O)O (stereo not shown) | 4.93
COc1ccccc1NC(=O)N1CCCC1C(=O)NCc1ccc2c(c1)OCO2 (stereo not shown) | 11.1
COc1nc(N(C#N)CC(N)=O)nc(N2CCCC2)n1 | 8.6
Cc1c(NC(=O)c2ccc(N3C(=O)C4C5C=CC(C5)C4C3=O)cc2)c(=O)n(-c2ccccc2)n1C (stereo not shown) | 29.3
O=C(CCCOc1ccc(Cl)cc1Cl)Nc1ncccn1 | 10.6

Compound | hERG current change (%, negative = inhibition) at 10uM [%]
Cc1cnc(C(=O)N2CCCC(N3CCN(c4cccc(C(F)(F)F)c4)CC3)C2)cn1 (stereo not shown) | -39.7
CN(C)c1ccc(/C=N/NC(=O)c2ccc3nc[nH]c3c2)cc1 | -8
COc1ccc(OC)c(NC(=O)CN2CCC(NC(=O)c3ccccc3C)CC2)c1 | -12.3
CC(CNC(=O)c1ccc(C#N)cc1)NC(=O)c1ccc(C#N)cc1 (stereo not shown) | -76.6
CCN(CC)Cc1c(C(=O)N/N=C/c2ccco2)nnn1-c1nonc1N | -14.3
Cc1ccc(S(=O)(=O)CCSc2n[nH]c(=O)n2-c2ccccc2)cc1 | 5.94
COc1ccc(Cl)cc1S(=O)(=O)N1CCC(C(=O)NCC2CCCO2)CC1 (stereo not shown) | -34.1
COCC(C)NCc1cccc([N+](=O)[O-])c1.O=C(O)C(=O)O (stereo not shown) | -21
Cc1ccc(CN2CCNC(=O)C2CC(=O)N2CCN(c3ncccn3)CC2)o1 (stereo not shown) | 20.4
Cc1ccc2c(c1)C1CN(C)CCC1N2C(=O)COc1ccc(S(=O)(=O)N2CCOCC2)cc1 (stereo not shown) | -15.8
CCCC#CCN1CCN(C23CC4CC(CC(C4)C2)C3)CC1 | -16.1
COc1ccc(N2CCN(C(=O)c3cc4ccccc4o3)CC2)cc1 | 29.9
CC1(C)CC(=O)c2sc(NC(=O)C3COc4ccccc4O3)nc2C1 (stereo not shown) | -13.1
Cn1ccc(-c2ccccc2)c(C#N)c1=O | 3.34
COc1ccc(OC)c(NC(=O)C2CCCCC2)c1 | 12.5
c1ccc2c(c1)CCN(Cc1nnnn1Cc1ccc3c(c1)OCO3)C2 | -3.1
Cc1ccc(Cc2c(C)nc3nc(SCC(=O)N4CCC5(CC4)OCCO5)nn3c2C)cc1 | -35.5
NC1=NC(=O)S/C1=C\c1ccc(O)cc1 | 21.4
CCOc1cc(-c2c(C#N)c(=O)[nH]c3c2c(C)nn3-c2ccc(F)cc2)ccc1O | 16.7
COc1ccccc1NC(=O)COC(=O)c1cnccn1 | 13
CCCCCCCCCCCC(=O)N/N=C/c1ccco1 | -11.2
COc1ccccc1Oc1coc2cc(O)ccc2c1=O | 7.33
Cc1c(C(=O)O)sc(=S)n1-c1ccccc1 | 2.83
CCOC(=O)N1CCN(c2c(-c3ccc(C(C)C)cc3)c(=O)c2=O)CC1 | -29.5
O=C(NC1CCCC1)C1CCN(C(=O)c2ccc(-c3ccccc3)cc2)CC1 | -24.8
COc1ccccc1N1CCN(C(=O)c2cc3n(n2)C(C(F)(F)F)CC(c2ccco2)N3)CC1 (stereo not shown) | -1.94
O=C(CN1C(=O)NC2(CCCC2)C1=O)OCc1ccc(Cl)c(Cl)c1 | -5.11
